Test results from PubChem BioAssay AID504332 (National Center for Advancing Translational Sciences (NCATS), 2011).
Among all 350,000 compounds or so, about 31,000 (8.9%) were called active. The shares of active, inactive and inconclusive entries below differ from those in the screen. Calls follow the shape of the dose curve; as a rule, active = well fitted inhibition curve with a large enough effect; inconclusive = small, poorly fitted or top-dose-only effect; inactive = no such curve, though single readings can be large or run the other way. Where the call is inconclusive, the potency comes from a doubtful curve fit.

molecular target: Histone-lysine N-methyltransferase EHMT2 (Homo sapiens) (UniProt Q96KQ7); assay: qHTS Assay for Inhibitors of Histone Lysine Methyltransferase G9a; details: G9a H3K9 monomethylation, AlphaScreen, 2 h; activity, negative = inhibition: at 59 µM (top of the series) unless noted; also: nearly all actives have a fitted effect of over 75% in size
Method in brief: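 Methyltransferase reactions run at room temperature for 2 h (20 nM enzyme, 500 nM biotin-H3K9 peptide, 20 uM SAM) after a 15 min compound preincubation; product detected by AlphaScreen beads and anti-H3K9me1 antibody.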
% is scaled to controls: 0 for no effect and ±100 for the full control effect; potency is read from the fitted curve at half-maximal effect; tags tell the direction and shape of the fitted curve.

UniProt Q96KQ7, sequence (Q96KQ7 whole entry, looked up): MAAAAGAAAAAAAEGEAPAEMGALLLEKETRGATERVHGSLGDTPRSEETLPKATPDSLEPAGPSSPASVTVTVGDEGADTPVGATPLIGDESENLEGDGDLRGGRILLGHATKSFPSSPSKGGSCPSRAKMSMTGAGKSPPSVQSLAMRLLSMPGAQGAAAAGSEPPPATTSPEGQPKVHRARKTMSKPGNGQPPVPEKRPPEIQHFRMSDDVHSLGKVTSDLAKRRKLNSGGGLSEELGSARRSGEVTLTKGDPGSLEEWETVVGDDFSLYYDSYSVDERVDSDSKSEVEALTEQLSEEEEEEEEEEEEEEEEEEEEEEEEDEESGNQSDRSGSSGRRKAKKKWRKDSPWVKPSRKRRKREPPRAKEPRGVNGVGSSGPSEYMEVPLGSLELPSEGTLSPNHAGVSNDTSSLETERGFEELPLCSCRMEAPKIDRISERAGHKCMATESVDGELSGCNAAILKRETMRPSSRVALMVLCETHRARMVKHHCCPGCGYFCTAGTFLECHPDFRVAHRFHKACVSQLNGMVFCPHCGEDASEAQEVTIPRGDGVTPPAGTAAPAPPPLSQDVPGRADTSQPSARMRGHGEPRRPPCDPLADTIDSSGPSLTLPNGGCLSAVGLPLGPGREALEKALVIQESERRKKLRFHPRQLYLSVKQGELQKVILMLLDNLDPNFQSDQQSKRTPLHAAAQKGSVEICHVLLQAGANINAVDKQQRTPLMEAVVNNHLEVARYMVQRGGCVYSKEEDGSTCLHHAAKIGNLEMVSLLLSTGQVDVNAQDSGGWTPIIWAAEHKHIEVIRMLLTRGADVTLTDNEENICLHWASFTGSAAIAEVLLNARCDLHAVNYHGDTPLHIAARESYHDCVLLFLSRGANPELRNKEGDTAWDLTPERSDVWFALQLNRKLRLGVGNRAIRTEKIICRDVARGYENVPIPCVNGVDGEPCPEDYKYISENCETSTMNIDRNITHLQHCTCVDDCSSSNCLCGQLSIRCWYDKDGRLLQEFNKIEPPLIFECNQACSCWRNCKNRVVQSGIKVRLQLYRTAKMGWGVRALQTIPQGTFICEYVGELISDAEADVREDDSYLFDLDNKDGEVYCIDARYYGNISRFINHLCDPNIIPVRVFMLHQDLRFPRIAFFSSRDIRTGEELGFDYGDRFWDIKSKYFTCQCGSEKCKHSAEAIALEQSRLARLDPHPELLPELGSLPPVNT

Row | SMILES | Potency | activity, negative = inhibition
1 | C=C(C)CN(CC)C(=O)COc1ccc(S(=O)(=O)Nc2ccc(OC)cc2)cc1 | inconclusive: 7.08 µM [inhibitor, full curve, poor fit] | 
2 | O=C(c1cc(S(=O)(=O)N2CCOCC2)ccc1F)N(Cc1nnc(-c2ccccc2Cl)o1)C1CC1 | inconclusive: 89.1 µM [inhibitor, partial curve, poor fit] | 
3 | CCC(C(=O)Nc1cc(C(=O)Nc2cc(C)ccn2)ccc1Cl)c1ccccc1 (centres undefined) | inactive | 
4 | CCOC(=O)Cc1nnc(NC(=O)c2ccccc2OCC)s1 | inactive | 
5 | COc1cccc(CCNC(=O)c2c(O)nc3cc(C)ccn3c2=O)c1 | inactive | 
6 | O=C(O)c1cc(NC(=O)c2cccc(C(=O)Nc3cc(C(=O)O)cc(C(=O)O)c3)c2)cc(C(=O)O)c1 | inconclusive: 70.8 µM [inhibitor, single point] | 
7 | CCCCN(C)C(=O)CN1C(=O)CCn2nc(-c3cn(C)c4ccccc34)cc21 | inactive | 
8 | COc1ccc(OCC(=O)Sc2ccc(C)cc2)cc1 | inactive | 
9 | CCNC(=O)Cn1c(=O)c(=O)n(Cc2ccccc2)c2ccc(Cl)cc21 | inconclusive: 100 µM [inhibitor, single point] | 
10 | CCOC(=O)c1ccc(N2CCOCC2)c(NC(=O)c2ccc3c(c2)OCO3)c1 | inactive | 
11 | Cc1c(C(=O)O)sc2nc(/C=C/c3cccc(F)c3)[nH]c(=O)c12 | inactive | 
12 | CCCNC(=O)c1ccccc1NS(=O)(=O)c1ccc(OC)c(OC)c1 | inconclusive: 1.58 µM [inhibitor, full curve, poor fit] | 
13 | O=c1[nH]c(=O)c2nc3c4ccccc4c4ccccc4c3nc2[nH]1 | active: 39.8 µM | 
14 | CC1=C(C(N)=O)C(c2cccc(F)c2)n2nc(SCc3ccccc3)nc2N1 (centres undefined) | inactive | 
15 | O=c1cc(-c2ccccc2)n2c(SCc3ccc([N+](=O)[O-])cc3)nnc2[nH]1 | inactive | 
16 | O=S(=O)(c1ccccc1)N1CCC2(CCN(c3ccncc3)CC2)CC1 |  | inactive: -3.57% [at 12.7 µM]
17 | O=[N+]([O-])c1ccc(C2CCCC/C2=N\OCc2cccc(F)c2)c([N+](=O)[O-])c1 (centres undefined) |  | inconclusive: -55% [inhibitor]
18 | CCOC(=O)C1=C(COC(=O)C2CC(=O)N(c3ccccc3F)C2)NC(=O)NC1C (centres undefined) |  | inactive: 4.12% [at 12.7 µM]
19 | CCOC(=O)C1CCCN(C(=O)c2cccc(S(=O)(=O)N(Cc3ccccc3)c3ccccc3OC)c2)C1 (centres undefined) |  | inactive: 12% [at 12.7 µM]
20 | S=C1NCN(Cc2ccco2)CN1 | inactive | 
21 | CC(C)(C)c1cc(C(=O)CCN2CCOCC2)cc(C(C)(C)C)c1O | active: 50.1 µM | 
22 | COc1ccc(CSc2nc3ccccc3c(=O)n2CCCN2CCOCC2)cc1F | inconclusive: 50.1 µM [inhibitor, partial curve, poor fit] | 
23 | O=C(N/N=C/c1cnc(N2CCCCC2)s1)c1ccc(Cl)cc1 | inactive | 
24 | C/C(CC1CC(COCC(C)C)OC1=O)=N\Nc1nc(-c2ccccc2)cs1 (centres undefined) | active: 25.1 µM | 
25 | CN(CCOc1ccccc1)C(=O)c1ccc(N2CCCC2)c([N+](=O)[O-])c1 | active: 50.1 µM | 

Row | SMILES | Potency | activity, negative = inhibition
26 | Cn1c(N)c(C(=O)CSc2n[nH]c(N)n2)c(=O)n(C)c1=O | inconclusive: 79.4 µM [inhibitor, single point] | 
27 | CCCCCCCCC(=O)N/N=C(\C)c1cccnc1 | active: 10 µM | 
28 | FC(F)(F)c1cnc(NNC(=S)Nc2ccccc2Cl)c(Cl)c1 | active: 39.8 µM | 
29 | O=C(CSc1nnnn1C1CCCCC1)Nc1ccccc1N1CCOCC1 | active: 35.5 µM | 
30 | C=CCN1C=C/C(=C\C=C(C#N)C#N)c2ccccc21 | inconclusive: 2.82 µM [inhibitor, partial curve, poor fit] | 
31 | CCc1ccc(C(=O)c2cnc3ccc(C)cc3c2S(=O)(=O)c2ccc(OC)cc2)cc1 | inconclusive: 2 µM [inhibitor, partial curve, poor fit] | 
32 | CN(C)S(=O)(=O)N(CCN1CCOCC1)Cc1ccccc1F | inconclusive: 1.78 µM [inhibitor, partial curve, poor fit] | 
33 | O=C(Nc1cccc(Cl)c1)c1ccc2nc(Cc3ccccc3)oc2c1 | inactive | 
34 | COc1cccc(Cn2cnc3c(N)c(C)c(C)cc32)c1 | inconclusive: 79.4 µM [inhibitor, single point] | 
35 | N#CC1=C(N)Nc2ncnn2C1c1ccc([N+](=O)[O-])cc1 (centres undefined) |  | inconclusive: -94% [inhibitor]
36 | Cc1ccccc1Nc1ncnc2c1c(-c1ccccc1)cn2-c1ccc(F)cc1 | inactive | 
37 | COc1ccc2[nH]c3c(c2c1)CCN1C(=O)N([C@@H](C)C(=O)NCc2c(F)cccc2Cl)C(=O)[C@]31C | inconclusive: 89.1 µM [inhibitor, single point] | 
38 | O=C(NCc1ccco1)c1ccc2c(=O)n(CC3CCCO3)c(=S)[nH]c2c1 (centres undefined) | active: 8.91 µM | 
39 | CC(=O)N1CC[n+]2c(-c3ccc(Cl)cc3)csc21 | active: 14.1 µM | 
40 | O=C(c1cc2ccccc2cc1O)N1CCN(c2ccccn2)CC1 | inconclusive: 79.4 µM [inhibitor, single point] | 
41 | O=C(CSc1nc2ncccc2[nH]1)NC1CCCC1 | active: 22.4 µM | 
42 | CCOc1ccc(CCNc2ncnc3onc(-c4ccc(F)cc4)c23)cc1OCC | inactive | 
43 | NC(=O)/C(=C/c1ccco1)NC(=O)/C=C/c1ccccc1 | inconclusive: 28.2 µM [inhibitor, single point] | 
44 | Cc1ccc2oc(C(=O)N(Cc3ccc(N(C)C)cc3)C3CCS(=O)(=O)C3)c(C)c2c1 (centres undefined) | active: 25.1 µM | 
45 | COc1ccc(NC(=O)c2cc(CN3C(=O)c4ccccc4C3=O)ccc2OC)cn1 | inconclusive: 50.1 µM [inhibitor, partial curve] | 
46 | CCCCn1c(CNC(=O)C23CC4CC(CC(C4)C2)C3)nnc1SCC(=O)Nc1ccccc1 | inactive | 
47 | COc1cccc(/C=C2\N=C3CCCCCN3C2=O)c1 | inconclusive: 100 µM [inhibitor, single point] | 
48 | CCCOC(=O)c1ccc(N)cc1 |  | inactive: 7.65% [at 12.7 µM]
49 | N#Cc1c(N)oc(-c2cccs2)c1-c1cccs1 | active: 12.6 µM | 
